Reference: paper PMC7001965, “Molecular identification and functional characterization of a cyanogenic glucosyltransferase from flax (Linum unsitatissimum)” (PLoS ONE, 2020)

Tests used:
[1] = target: LuCGT1 (UGT85Q1) (Linum usitatissimum, UniProt G9BER4); conditions: read-out: Apparent Km; co-substrate 14C-UDP-glucose; HEPES 0.1 M pH 8.0, 30°C, 100 μg yeast lysate protein; glucosyl acceptor; unstable, cyanohydrin dissociates at assay pH
[2] = system: O=c1ccn([C@@H]2O[C@H](CO[P@@](=O)(O)O[P@@](=O)(O)O[C@H]3O[C@H](CO)[C@@H](O)[C@H](O)[C@H]3O)[C@@H](O)[C@H]2O)c(=O)[nH]1; assay: cells, lysate or membranes; conditions: co-substrate acetone cyanohydrin, HEPES 0.1 M pH 8.0, 30°C, 100 μg yeast lysate protein, glucosyl donor, labelled compound

Row | Molecule | Km [1] [µM] | Km [2] [µM] | Vmax [2] [nmol/min]
1 | CC(C)(O)C#N [acetone cyanohydrin] | 61.3 ± 4.5 |  | 
2 | LuCGT1 (UGT85Q1) (Linum usitatissimum) |  | 248 ± 56 | 0.42 ± 0.052
